Data: PubChem BioAssay AID624296 (National Center for Advancing Translational Sciences (NCATS), 2012)
Out of some 350,000 compounds screened, about 9,900 (2.8%) were called active. This list was built around the results that the source calls inconclusive (neither active nor inactive); the mix of calls is not that of the screen. Calls follow the shape of the dose curve; as a rule, active = well fitted activation curve with a large enough effect; inconclusive = small, poorly fitted or top-dose-only effect; inactive = no such curve, though single readings can be large or run the other way. Potencies of inconclusive entries are left out as doubtful fits.

Assay: A quantitative high throughput screen for small molecules that induce DNA re-replication in MCF 10a normal breast cells. Also: nearly all actives have a fitted effect of over 50% in size. As to activity, positive = re-replication: % of control where 0% means no effect.
Settings: MCF 10A DNA re-replication, Hoechst nuclear intensity, 48 h; activity, positive = re-replication: at 46.1 µM (top of the series)
Potency is read from the fitted curve at half-maximal effect; tags tell the direction and shape of the fitted curve.

Row | Structure (SMILES) | Potency | activity, positive = re-replication
1 | O=C1c2ccccc2C(=O)N1CCN1CCOCC1 | inactive | 
2 | Cc1ccc([C@H]2C(C(=O)O)=CC[C@@H](c3cccs3)N2S(=O)(=O)c2ccc(C)cc2)cc1 | inconclusive [activator, single point] | 
3 | OC1(c2ccc(OC(F)F)cc2)CSC(=Nc2cccnc2)N1Cc1ccco1 (configuration not stated) | inconclusive [activator, single point] | 
4 | CC(OC(=O)/C=C/c1cccc(F)c1)C(=O)NC1CCCCC1C (configuration not stated) | inactive | 
5 | CCSc1nc2ccccc2c(=O)n1CCc1ccc(OC)c(OC)c1 | inconclusive [activator, single point] | 
6 | c1ccc(-c2ccccc2OCCCCn2ccnc2)cc1 | inactive | 
7 | N#CC1(NC(=O)COC(=O)c2ccc(-c3ccc(O)cc3)cc2)CCCCC1 | inactive | 
8 | CC(=O)c1ccc2c(c1)N(C)c1ccccc1S2 | inconclusive [activator, single point] | 
9 | O=C(CCn1nnc2ccccc21)N/N=C\Cc1ccccc1 | inconclusive [activator, single point] | 
10 | Cc1ccc(NC(CC(=O)c2ccccc2)C(=O)O)cc1Cl (configuration not stated) | inconclusive [activator, partial curve, poor fit] | 
11 | COc1ccc(C)cc1NC(=O)c1sc2ncn(CC(=O)N3CCCCC3)c(=O)c2c1C | inactive | 
12 | Cc1ccsc1C(=O)N(C)C1CCS(=O)(=O)C1 (configuration not stated) | inactive | 
13 | CCCOc1ccccc1C1C(C(=O)OC)=CN(C(C)C)C=C1C(=O)OC | inconclusive [activator, single point] | 
14 | CC(=O)N1CCC2(CC1)CC(=O)c1cc(OCC(=O)N3CCOCC3)ccc1O2 | inactive | 
15 | COc1ccc2c(c1OC)c(=O)n1c3ccc(OC(C)C(=O)NCCCN4CCOCC4)cc3c3ccnc2c31 (configuration not stated) | active: 5.8 µM | 
16 | Cc1nc2c(-c3ccc(Cl)cc3)cnn2c2c1CCC2 | active: 20.6 µM | 
17 | COc1ccccc1NC(=O)N(Cc1cc2cc(OC)c(OC)cc2[nH]c1=O)CC1CCCO1 (configuration not stated) | inconclusive [activator, single point] | 
18 | COc1cccc(NC(=O)CN(C)C(=O)CNC(=O)c2ccc(Oc3ccccc3)cc2)c1 | inactive | 
19 | C=C(C)C1CC=C(C)/C(=N/NC(=O)c2ccc(NC(=O)CCC)cc2)C1 (configuration not stated) | inconclusive [activator, partial curve, poor fit] | 
20 | CN(C)C(=O)CSc1nnc([C@H](Cc2c[nH]c3ccccc23)NC(=O)OC(C)(C)C)o1 | inactive | 
21 | CN(Cc1ccccc1)c1nc2c(c(=O)[nH]c(=O)n2C)n1Cc1ccccc1 | inconclusive [activator, partial curve, poor fit] | 
22 | Cc1ccc(-n2ncc3c(SCC(=O)NNC(=O)c4ccco4)ncnc32)cc1 | inactive | 
23 | CN1/C(=C\C=C(/C#N)C(=O)Nc2ccccc2F)C(C)(C)c2ccccc21 | inconclusive [activator, single point] | 
24 | O=C(NCCO)/C(=C\c1ccco1)NC(=O)c1ccco1 | inactive | 

Row | Structure (SMILES) | Potency | activity, positive = re-replication
25 | N/N=C(\c1ccccc1)C12CN3CN(CN(C3)C1)C2 | inconclusive [activator, partial curve, poor fit] | 
26 | O=C(/C=C/Nc1ccc([N+](=O)[O-])cc1)c1ccc(Br)cc1 | inconclusive [activator, single point] | 
27 | Clc1ccc(SCCCCN2CCNCC2)cc1 | active: 2.91 µM | 
28 | Cc1cc(C(=O)Cn2cnc3ccccc3c2=O)c(C)n1C1CC1 | inactive | 
29 | Cc1ccc2nc(-c3ccncc3)c(NC3CCCC3)n2c1 | inconclusive [activator, single point] | 
30 | CCCn1c(SCC(=O)c2ccc3c(c2)OCCO3)nnc1C(C)C | inconclusive [activator, single point] | 
31 | CC(=O)c1cnc(-c2cccc(Cl)c2)s1 | active: 2.06 µM | 
32 | CCOc1cc(/C=C(\C#N)c2nc3ccccc3[nH]2)ccc1OC(C)C(=O)O (configuration not stated) | inconclusive [activator, single point] | 
33 | Cn1ncc2c(Nc3ccc(Cl)c(Cl)c3)ncnc21 | inactive | 
34 | Cc1ccccc1CC(=O)NC1CCN(Cc2ccccc2)CC1 | inactive | 
35 | O=C(CNCC1CCCCC1)Nc1ccccc1N1CCCCC1 | inconclusive [activator, single point] | 
36 | CS(=O)(=O)Nc1ccc([N+](=O)[O-])cc1Oc1ccccc1 | inactive | 
37 | CCOC(=O)C1=C(C)N(c2ccc(OC)cc2)C(=O)/C1=C\c1ccc(O)c(OCC)c1 | inconclusive [activator, single point] | 
38 | O=S(=O)(c1ccc(OCC(O)CNC23CC4CC(CC(C4)C2)C3)c(Cl)c1)N1CCOCC1 (configuration not stated) | inconclusive [activator, single point] | 
39 | CCOC(=O)c1c(NC(=O)c2ccco2)sc2c1CCCC2 | inconclusive [activator, full curve, poor fit] | 
40 | O=C(CSc1ccc2ccccc2n1)N/N=C/c1ccc(O)cc1 | inconclusive [activator, single point] | 
41 | CC(O)CN(CC(C)O)c1ccc2c(c1)Cc1cc([N+](=O)[O-])ccc1-2 (configuration not stated) | active: 11.6 µM | 
42 | O=C(Cc1cn(Cc2cccc(Cl)c2)c2ccccc12)N1CCCCCC1 | inconclusive [activator, partial curve] | 
43 | FC(F)Sc1ccc(NC(=S)N2CCN(c3ccccn3)CC2)cc1 | inconclusive [activator, full curve, poor fit] | 
44 | COc1ncnc2c1sc1nc(-c3ccccc3)c3c(c12)CCCC3 | inactive | 
45 | Nc1nc(CSc2ncn(-c3ccccc3)n2)cs1 | inconclusive [activator, partial curve, poor fit] | 
46 | Cc1ccc(S(=O)(=O)N2CCCC2C(=O)OCc2ccco2)cc1 (configuration not stated) | inconclusive [activator, single point] | 
47 | COc1cc(C(C)=O)ccc1OCC(=O)NCCCn1nc(C)cc1C | inactive | 
48 | Cc1ccc(C(=O)NCC(=O)NCC(=O)OCC(=O)c2ccc([N+](=O)[O-])cc2)cc1 | inactive | 

Row | Structure (SMILES) | Potency | activity, positive = re-replication
49 | COc1cc(/C=C/C(=O)OCC(=O)NCCc2ccc(S(N)(=O)=O)cc2)ccc1OCC#N | inconclusive [activator, single point] | 
50 | O=C(NC(=S)NCCC1=CCCCC1)c1ccccc1Br | inconclusive [activator, single point] | 
51 | O=C(Cc1ccccc1)NCC(=O)OCC(=O)c1ccc(Cl)c([N+](=O)[O-])c1 | inconclusive [activator, single point] | 
52 | NC(=O)c1cc[n+](CC2=C(C(=O)O)N3C(=O)[C@@H](NC(=O)C(c4ccccc4)S(=O)(=O)[O-])[C@H]3SC2)cc1 (some centres not stated) | inconclusive [activator, partial curve, poor fit] | 
53 | Cc1ccc(NS(=O)(=O)c2ccc(Cl)c(NC(=S)NC(=O)C3CCCCC3)c2)cc1Cl | active: 8.2 µM | 
54 | CCCN(Cc1nnc(-c2ccccc2Cl)o1)C(=O)COc1ccc(Cl)cc1 | inactive | 
55 | O=C(CCCN1C(=O)/C(=C/c2ccccc2OC(F)F)SC1=S)Nc1cccnc1 | active: 23.1 µM | 
56 | COc1ccccc1-c1nnc(NC(=O)CCS(=O)(=O)c2ccccc2)o1 | inconclusive [activator, single point] | 
57 | COc1ccc(OCCC(=O)NCC23CC4CC(CC(C4)C2)C3)cc1 | inconclusive [activator, partial curve, poor fit] | 
58 | C/C(=N\NS(=O)(=O)c1ccccc1)c1cccc(NC(=O)c2cccc(Cl)c2)c1 | inconclusive [activator, single point] | 
59 | CC(C)Cn1c(SCC(=O)Nc2cccc(S(N)(=O)=O)c2)nc2ccccc2c1=O | inactive | 
60 | CC(=O)Nc1ccc(S(=O)(=O)NNC2=NS(=O)(=O)c3ccccc32)cc1 | inactive | 
61 | CC1(C)Cc2c(C#N)c(N3CCN(C(=O)c4ccccc4)CC3)nc(-c3ccco3)c2CS1 | active: 13 µM | 
62 | C=C(C)COc1ccc(-c2[nH]ncc2Oc2ccc(OC)cc2)c(O)c1 | inconclusive [activator, single point] | 
63 | CCOC(=O)C1=C(C)NC(=S)NC1c1ccc(-c2cccc(Cl)c2C)o1 (configuration not stated) | inconclusive [activator, partial curve] | 
64 | CCCS(=O)(=O)N1CCC(C(=O)NCCCOC)CC1 | inactive | 
65 | Nc1ccc(C(=O)Nc2ccc(OC(F)(F)C(F)F)c(NC(=O)c3ccc(N)cc3)c2)cc1 | inactive | 
66 | Clc1ccc(-n2ncc3c(NCCCn4ccnc4)ncnc32)cc1 |  | inactive: 121% [at 0.0737 µM]
67 | CN(C1CCS(=O)(=O)C1)S(=O)(=O)c1ccc(C2CCCCC2)cc1 (configuration not stated) | inconclusive [activator, single point] | 
68 | CCCCn1c(=N)n(CC(=O)c2ccc(Br)s2)c2ccccc21 | inconclusive [activator, partial curve, poor fit] | 
69 | COC(=O)CCC(=O)NN1C(=O)c2ccccc2C1=O | inconclusive [activator, single point] | 
70 | COc1cccc(OC)c1C(=O)N1CCN(Cc2ccc3c(c2)OCO3)CC1 | inactive | 
71 | COc1ccc(/C=C/C(=O)c2ccc3c4c(cccc24)CC3)cc1OC | active: 18.4 µM | 
72 | O=C(O)CC1(CC(=O)Nc2ccc3ccccc3n2)CCCCC1 | inconclusive [activator, single point] | 
